# This is one part of the list.
# B1: PkBDPgamma (Plasmodium knowlesi) (protein)
# chain: SAINQIFLQNNVMDKCNDKRKRGERDWDCPTEKDVCIPDRRYQLCMMEITNLVDTDTHFHSDIIFRKSYSRRRLIYDVGGRGDLLLKKYNNVYSEDLCKDIKWSLQDFGDIIMGTDMEGIGYSLVVQNNLRSIFGTGTSAELDRKKWWNDHKKDIWKAMILSVKEKNRYSAWNCKEDVQIKVEPQIYRWIREWGRDYMSEFREQRRKLNEKCEDKLYYSTMLICTLPPCNNACKSYDEWITGKKKQWDVLSTKFSSVKKAQKIETENIARAYDILKQELNGFNEVTFENEINKRDKLYNYFCVCIVQEARKNTQENVKNVGSGVESKAPSSNPINEAVKSSSGEGKVQEDSAHRSVNEGEGKSSTNEADPGSQPGAAASGGGSGGGTGGGVDLAPQMLRELQETNAALQDVRELLRQQVKEITFLKNTVMECDACGGPLDRNLPPLAPLGPTGGWSHPQFEK
# Key:
# Test in all cases: glycan array binding signal (z-score within array); higher = stronger binding
# Settings in all cases: glycan notation: IUPAC condensed, linker removed
# [1] = molecular target: Fuc(a1-2)Gal6S(b1-3)GlcNAc
# Outline: (§1)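 Glycan array data came from 3228 arrays in the Consortium for Functional Glycomics database, and only arrays with an available protein sequence were kept. Glycan names were put into IUPAC-condensed notation, and columns mapping to the same glycan were averaged. The binding signal is a within-array Z-score, averaged across arrays of one protein sequence run at different concentrations or buffers and across linkers. A negative Z-score can be read as non-binding.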
# [2] = molecular target: Fuc(a1-2)Gal6S(b1-3)GlcNAc6S
# Outline: as §1
# Fuc(a1-2)Gal6S(b1-4)Glc = molecular target: Fuc(a1-2)Gal6S(b1-4)Glc
# Outline: as §1
# [3] = molecular target: Fuc(a1-2)Gal6S(b1-4)Glc6S
# Outline: as §1
# Fuc(a1-2)[Gal(a1-3)]Gal = molecular target: Fuc(a1-2)[Gal(a1-3)]Gal
# Outline: as §1
# [4] = molecular target: Fuc(a1-2)[Gal(a1-3)]Gal(b1-3)GalNAc
# Outline: as §1
# [5] = molecular target: Fuc(a1-2)[Gal(a1-3)]Gal(b1-3)GalNAc(b1-3)Gal(a1-4)Gal(b1-4)Glc
# Outline: as §1
# [6] = molecular target: Fuc(a1-2)[Gal(a1-3)]Gal(b1-3)GlcNAc
# Outline: as §1
# [7] = molecular target: Fuc(a1-2)[Gal(a1-3)]Gal(b1-3)GlcNAc(b1-2)Man(a1-3)[Fuc(a1-2)[Gal(a1-3)]Gal(b1-3)GlcNAc(b1-2)Man(a1-6)]Man(b1-4)GlcNAc(b1-4)GlcNAc
# Outline: as §1
# [8] = molecular target: Fuc(a1-2)[Gal(a1-3)]Gal(b1-3)GlcNAc(b1-2)Man(a1-3)[Fuc(a1-2)[Gal(a1-3)]Gal(b1-3)GlcNAc(b1-2)Man(a1-6)]Man(b1-4)GlcNAc(b1-4)[Fuc(a1-6)]GlcNAc
# Outline: as §1
# [9] = molecular target: Fuc(a1-2)[Gal(a1-3)]Gal(b1-3)GlcNAc(b1-3)GalNAc
# Outline: as §1
# [10] = molecular target: Fuc(a1-2)[Gal(a1-3)]Gal(b1-3)GlcNAc(b1-6)GalNAc
# Outline: as §1
# [11] = molecular target: Fuc(a1-2)[Gal(a1-3)]Gal(b1-4)Glc
# Outline: as §1
# [12] = molecular target: Fuc(a1-2)[Gal(a1-3)]Gal(b1-4)GlcNAc
# Outline: as §1
# [13] = molecular target: Fuc(a1-2)[Gal(a1-3)]Gal(b1-4)GlcNAc(b1-2)Man
# Outline: as §1
# [14] = molecular target: Fuc(a1-2)[Gal(a1-3)]Gal(b1-4)GlcNAc(b1-2)Man(a1-3)[Fuc(a1-2)[Gal(a1-3)]Gal(b1-4)GlcNAc(b1-2)Man(a1-6)]Man(b1-4)GlcNAc(b1-4)GlcNAc
# Outline: as §1
# [15] = molecular target: Fuc(a1-2)[Gal(a1-3)]Gal(b1-4)GlcNAc(b1-2)Man(a1-3)[Fuc(a1-2)[Gal(a1-3)]Gal(b1-4)GlcNAc(b1-2)Man(a1-6)]Man(b1-4)GlcNAc(b1-4)[Fuc(a1-6)]GlcNAc
# Outline: as §1
# [16] = molecular target: Fuc(a1-2)[Gal(a1-3)]Gal(b1-4)GlcNAc(b1-3)GalNAc
# Outline: as §1
# [17] = molecular target: Fuc(a1-2)[Gal(a1-3)]Gal(b1-4)GlcNAc(b1-3)[Fuc(a1-2)[Gal(a1-3)]Gal(b1-4)GlcNAc(b1-6)]GalNAc
# Outline: as §1
# [18] = molecular target: Fuc(a1-2)[Gal(a1-3)]Gal(b1-4)GlcNAc(b1-6)GalNAc
# Outline: as §1
# [19] = molecular target: Fuc(a1-2)[Gal(a1-3)]Gal(b1-4)[Fuc(a1-3)]Glc
# Outline: as §1
# [20] = molecular target: Fuc(a1-2)[Gal(a1-3)]Gal(b1-4)[Fuc(a1-3)]GlcNAc
# Outline: as §1
# [21] = molecular target: Fuc(a1-2)[Gal(a1-3)]Gal(b1-4)[Fuc(a1-3)]GlcNAc(b1-3)GalNAc
# Outline: as §1
# [22] = molecular target: Fuc(a1-2)[Gal(a1-4)]Gal(b1-4)GlcNAc
# Outline: as §1
# [23] = molecular target: Fuc(a1-2)[GalNAc(a1-3)]Gal
# Outline: as §1
# [24] = molecular target: Fuc(a1-2)[GalNAc(a1-3)]Gal(b1-3)GalNAc(a1-3)[Fuc(a1-2)]Gal(b1-4)GlcNAc
# Outline: as §1
# [25] = molecular target: Fuc(a1-2)[GalNAc(a1-3)]Gal(b1-3)GalNAc(b1-3)Gal(a1-4)Gal(b1-4)Glc
# Outline: as §1
# [26] = molecular target: Fuc(a1-2)[GalNAc(a1-3)]Gal(b1-3)GlcNAc
# Outline: as §1
# [27] = molecular target: Fuc(a1-2)[GalNAc(a1-3)]Gal(b1-3)GlcNAc(b1-2)Man(a1-3)[Fuc(a1-2)[GalNAc(a1-3)]Gal(b1-3)GlcNAc(b1-2)Man(a1-6)]Man(b1-4)GlcNAc(b1-4)GlcNAc
# Outline: as §1
# [28] = molecular target: Fuc(a1-2)[GalNAc(a1-3)]Gal(b1-3)GlcNAc(b1-2)Man(a1-3)[Fuc(a1-2)[GalNAc(a1-3)]Gal(b1-3)GlcNAc(b1-2)Man(a1-6)]Man(b1-4)GlcNAc(b1-4)[Fuc(a1-6)]GlcNAc
# Outline: as §1
# [29] = molecular target: Fuc(a1-2)[GalNAc(a1-3)]Gal(b1-3)GlcNAc(b1-3)GalNAc
# Outline: as §1
# [30] = molecular target: Fuc(a1-2)[GalNAc(a1-3)]Gal(b1-3)GlcNAc(b1-6)GalNAc
# Outline: as §1
# [31] = molecular target: Fuc(a1-2)[GalNAc(a1-3)]Gal(b1-4)Glc
# Outline: as §1
# [32] = molecular target: Fuc(a1-2)[GalNAc(a1-3)]Gal(b1-4)GlcNAc
# Outline: as §1
# [33] = molecular target: Fuc(a1-2)[GalNAc(a1-3)]Gal(b1-4)GlcNAc(b1-2)Man
# Outline: as §1
# [34] = molecular target: Fuc(a1-2)[GalNAc(a1-3)]Gal(b1-4)GlcNAc(b1-2)Man(a1-3)[Fuc(a1-2)[GalNAc(a1-3)]Gal(b1-4)GlcNAc(b1-2)Man(a1-6)]Man(b1-4)GlcNAc(b1-4)GlcNAc
# Outline: as §1
# [35] = molecular target: Fuc(a1-2)[GalNAc(a1-3)]Gal(b1-4)GlcNAc(b1-2)Man(a1-3)[Fuc(a1-2)[GalNAc(a1-3)]Gal(b1-4)GlcNAc(b1-2)Man(a1-6)]Man(b1-4)GlcNAc(b1-4)[Fuc(a1-6)]GlcNAc
# Outline: as §1
# [36] = molecular target: Fuc(a1-2)[GalNAc(a1-3)]Gal(b1-4)GlcNAc(b1-3)Gal(b1-4)GlcNAc
# Outline: as §1
# [37] = molecular target: Fuc(a1-2)[GalNAc(a1-3)]Gal(b1-4)GlcNAc(b1-3)Gal(b1-4)GlcNAc(b1-3)Gal(b1-4)GlcNAc
# Outline: as §1
# [38] = molecular target: Fuc(a1-2)[GalNAc(a1-3)]Gal(b1-4)GlcNAc(b1-3)GalNAc
# Outline: as §1
# [39] = molecular target: Fuc(a1-2)[GalNAc(a1-3)]Gal(b1-4)GlcNAc(b1-3)[Fuc(a1-2)[GalNAc(a1-3)]Gal(b1-4)GlcNAc(b1-6)]GalNAc
# Outline: as §1
# [40] = molecular target: Fuc(a1-2)[GalNAc(a1-3)]Gal(b1-4)GlcNAc(b1-6)GalNAc
# Outline: as §1
# [41] = molecular target: Fuc(a1-2)[GalNAc(a1-3)]Gal(b1-4)[Fuc(a1-3)]GlcNAc
# Outline: as §1
# [42] = molecular target: Fuc(a1-2)[GalNAc(a1-3)]Gal(b1-4)[Fuc(a1-3)]GlcNAc(b1-3)GalNAc
# Outline: as §1
# [43] = molecular target: Fuc(a1-2)[GalNAc(a1-4)]Gal(b1-4)GlcNAc
# Outline: as §1
binder,measurement,setting,value
B1,glycan array binding signal (z-score),[1],0.072
same,glycan array binding signal (z-score),[2],0.392
same,glycan array binding signal (z-score),Fuc(a1-2)Gal6S(b1-4)Glc,-0.08
same,glycan array binding signal (z-score),[3],0.074
same,glycan array binding signal (z-score),Fuc(a1-2)[Gal(a1-3)]Gal,-0.271
same,glycan array binding signal (z-score),[4],-0.315
same,glycan array binding signal (z-score),[5],0.02
same,glycan array binding signal (z-score),[6],0.248
same,glycan array binding signal (z-score),[7],-0.122
same,glycan array binding signal (z-score),[8],-0.307
same,glycan array binding signal (z-score),[9],-0.705
same,glycan array binding signal (z-score),[10],0.294
same,glycan array binding signal (z-score),[11],-0.178
same,glycan array binding signal (z-score),[12],-0.12
same,glycan array binding signal (z-score),[13],-0.629
same,glycan array binding signal (z-score),[14],0.37
same,glycan array binding signal (z-score),[15],-0.045
same,glycan array binding signal (z-score),[16],-0.37
same,glycan array binding signal (z-score),[17],0.056
same,glycan array binding signal (z-score),[18],0.292
same,glycan array binding signal (z-score),[19],0.263
same,glycan array binding signal (z-score),[20],0.066
same,glycan array binding signal (z-score),[21],-0.566
same,glycan array binding signal (z-score),[22],0.52
same,glycan array binding signal (z-score),[23],-0.098
same,glycan array binding signal (z-score),[24],-0.349
same,glycan array binding signal (z-score),[25],0.176
same,glycan array binding signal (z-score),[26],0.388
same,glycan array binding signal (z-score),[27],0.186
same,glycan array binding signal (z-score),[28],0.314
same,glycan array binding signal (z-score),[29],0.298
same,glycan array binding signal (z-score),[30],-0.403
same,glycan array binding signal (z-score),[31],-0.206
same,glycan array binding signal (z-score),[32],0.177
same,glycan array binding signal (z-score),[33],-0.393
same,glycan array binding signal (z-score),[34],0.106
same,glycan array binding signal (z-score),[35],0.332
same,glycan array binding signal (z-score),[36],-0.454
same,glycan array binding signal (z-score),[37],-0.088
same,glycan array binding signal (z-score),[38],-0.088
same,glycan array binding signal (z-score),[39],-0.092
same,glycan array binding signal (z-score),[40],-0.264
same,glycan array binding signal (z-score),[41],-0.254
same,glycan array binding signal (z-score),[42],-0.356
same,glycan array binding signal (z-score),[43],0.172

# From the supplement of paper PMC8728848
